Assay results from the RNAGym collection of RNA variant scans (doi:10.7554/elife.90254).
The source gives no read counts; variants with many changes may rest on few reads.

B1: LINE1-mini (parent)
chain: GGCAGAGCUCAACACAGCGUGGCAAAGUGGCUGUGGCUAGACUGCC

Variants of: B1
Assay: self-cleavage, relative activity (ratio to wild type); higher = more cleavage; in vitro, sequencing; the parent is a self-cleaving ribozyme

Variant | self-cleavage
GGCAGAGCUAAACACAGCGUGGCUAAGAGGCUGUGGCUGGACUGCC | 0
GGCAGAGCUCUACACAGUGUGGCAACGUGGCUGUGGCUAGACAGCC | 0
GGCUUAGCUCAAUACAGCGUGGCAAAGUGGCUGUCGCUAGACUGCC | 0.06
GGCGGAGCUCAACAAAGAGUGGCAAAGUGGCUGUGGCUAGACUGCC | 0.04
GGCCGAGCUCAACACUGCGUGGCAAAGUAGCUGUGGCUAGACUGCC | 0.04
GGCAGAGAUCAAAACAGCGUGGCAAAGUGGCUUUCGCUAGGCUGCC | 0.11
GCCAGAGCUCAAGACAGCGUCGCAAAGUGGCUGUGGCUAGACUGCC | 0.04
GGAAGAGCAUAAAACAGCGUCGCAAUGUAGCUGUGACUAGACUGCC | 0.7
GGCAUAGCUCAACAGAUCGUGGGAAAGUGGCUGUGGCUAGACUGCC | 0.04
GGCAGAGCUCAACUCAGAGGGGUAAAGUGGCUGUGGUUAGACUGCC | 0.05
GGCAGAGCUCACCACAGCAUGGCAAAAUGGCUGUAGCUAGACUGCC | 0.08
GGCUGAGCUCAACGCAGCGCGGCAAAGUGGCUGUGGCUAGACUGCC | 0.36
GGCAGAAAUCAAGACAGUGUGGCAAAGUGGCUGUGGCUAGACUGCC | 0.32
GGCAGAGCUCAACAAAGCGGGGCAAAGUGGCUGUGGCUAGACUUCC | 0.07
CUCAGAGCUCAACACAGCGUGGUAAAGUGGCUGUGUCUAGACUGCC | 0.02
GGCAGAGCACAACACAGCGUGGCAAAGUGGCUGUGGUAAGACUGCC | 0.32
GGCAGAGCUGAACACUGCGUGGCAAAGUGGCUGAGGCUAGAUUGCC | 0
AGCAGAGCUGAACACAGCGUGGCAAAGUGGCUGUGGCUAGCCUGCC | 0.03
GGCAGAGCUCAAUACAGCGUGGCAAAGUGGCUGUGGUUAGACCCCC | 0.04

Variant | self-cleavage
GGCAGAGUUCUACACAGCGUGGCAAAGUGGCUGUGGCAAGGCUGCC | 0.02
GUCUGAGCUCAACACACCGUGGCAAAGUGGCUGUGUCUAAAUUGAC | 0.02
GGCAGAGCUCAACAGAGCGUGGCAAAGUGGCUGUGGCUCGUCUGCC | 0.05
GGCAGAGCUCAACACAGAGUGGCAAAGUGGCUGCCGCUAGACUGCC | 0.04
GGAAGAGCUCAACACAGCAUGGCACAGGGGCUGUGGCUAGACUGCC | 0.05
GGCAGAGCUCUACACAGCGUGGCAAAGUUGCUGUGGCUAAACUGAC | 0.02
GGCCGACCUCAACACAGCGUGGCAAAGUGCCUGUGGCUAGACUGCC | 0.09
GGCAGAGCUAAACACCGCGUGGUAAAGUGGCUGUGGCCAGACUGCC | 0.02
GGCAGAGCUUAACACAGCGUCGCAAAAUGGCUGCGGCUAGACUGCC | 0.16
GGCAGAGCUCAAUACAGCUUGGCACAGUGGUUGUGGGUAGACUGCC | 0.01
GGCAGAGCUAAACACAGCGUGGCAAAGUGGCUGUGGUUAUACUGCC | 0
GGCAGAGCUCAACACAGCGUGGCAAAGUGUCUCUGGCUCGUCUGCC | 0.02
GGCAGAAGUCAACAAAGCGUGGCAAAGCGGCUGUGGCAAGACUGGC | 0.03
GGCGGACCUCUACACGGCGUGGAAAAGUGGUUGUGGCUAGACUGCC | 0.01
GGCAGAGCUCAACACAUCGUUGCAAAGCGGCUGUGGCUAGGCUGCC | 0
GACAGAGCUCAACACAGCGUGCCAAAUUGGCUGUGGCUAGACGGCC | 0.09
GGCAAAGCUCAACAGAGCGUGACAAAGUGGCUGUGGCUAGACUGCC | 0.06
GGCAGAGCUAAACACAGCGUGGCAAAUUGGCUGUGGCUAGCAUGCC | 0.01
GGCAGAGCUCAACACAACGUCGCAAAGUGCCUGGGGCUAGACUGCC | 0.16

Variant | self-cleavage
GGCAGAUCUCAACACAGCGUGGCAAAGUGACUGUGGCGAGACUGCC | 0.01
GCCAGAGCUCAACACAGCCUGGCAAAUUGGCUGUGGCUAGACUGCC | 0.13
GGCCGAGCUCAACACAGUGUGGCAAAUUGGCUGUGGCUAGAUUGCA | 0.38
GGCAGAGCUGAACAAAGCGUGGCACAGUGGCUUUGGCUAGAUUGCU | 0.01
GGCAGAGCUCUACACAGCGUGGCAAAAGGGCUGUGGCUAGACUGCA | 0.02
GUCAGAGCUCAACACAGCCUGGCAACGUGGCUGUGGCUAGACUGCC | 0.04
GGCAGAGCUCAGCACAGCGUGGCAAAGCGGCUGUAGCUAGACUGCC | 0.01
GGCAGAGCUCAACACAGCGUGGCAAAGUGGCUGUGUCUUGUCUGCC | 0.26
GGUAUAGCUCAACACAGUGUGUCAAAGUGCCUGUUGCUAGACUGCC | 0.03
CGCAGCGCUCAACACAGCGUGGCAAAUUGGCUGUGGCUAGACUUCC | 0.02
GGCAGAGCUCCACACAGCGUGGCAAAGUGGCUGUGGGUAGACUGCA | 0
GGCUAAGCCCAACACAGCGUGGUAAACUGGCAGUGAAUAGACUGCC | 0.04
GGCAGAGCUUAACACAGCGUGGCAAAGUGGCUGUUGGUAGACUGCC | 0.06
GGCACAGCUCAACACAGUGUCACAAAGUGACUAUGGCUAGACUGCC | 0.15
GGAAGAGCUCAACACAGCGUCACAAAGUGGCUUUGGCUAGACUCCC | 0.16
GGCACAGCUCAAAAAAGCGUGGCAAAGUGCCUGUGGCUAGACUGCC | 0.07
GGCAGAGCUCAACACAGAGUGGCAAAGUGGCGUUGGCUAGACUCCC | 0.04
GGCAGAGCUCAGCACAGCGUGGCAACGUGGCUGUGGAUAGACUGAC | 0.1
